About 11,000 (3.5%) of roughly 310,000 compounds were called active. The shares of active, inactive and inconclusive entries below differ from those in the screen. Calls come from the whole dose curve; as a rule, active = well fitted inhibition curve with a large enough effect; inconclusive = small, poorly fitted or top-dose-only effect, or effect the other way; inactive = flat fitted curve, though single readings scatter. No potency is given beside an inconclusive call; the fits are too rough.
Assay: VP16 counterscreen qHTS for inhibitors of ROR gamma transcriptional activity;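 note: Gal4-VP16 expression switched on by copper sulfate through the metallothionein promoter; nearly all actives have a fitted effect of over 50% in size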
Details: Drosophila S2 Gal4-VP16 UAS-luciferase, luminescence, 20 h; activity, negative = inhibition: at 53.6 µM (top of the series)
% is set by controls: 0 for no effect and ±100 for the full control effect; potency is the fitted concentration of half-maximal effect; tags give direction and shape of the fitted curve.

Structure (SMILES)	Potency	activity, negative = inhibition
CCC(c1nnc(SCC(=O)Nc2nnc(-c3ccccc3)o2)o1)N(C)C (configuration not stated)	inconclusive [inhibitor, single point]	–
Cc1ccc2nc(N/N=C/c3ccccc3C#N)nc(-c3ccccc3)c2c1	inconclusive [inhibitor, single point]	–
CCSc1nc(O)cc(=O)[nH]1	–	inactive: 3.85%
OC(COc1ccccc1)Cn1c2ccccc2c2ccccc21 (configuration not stated)	inconclusive [inhibitor, single point]	–
CC(=O)Nc1ccc(NC2CCCCC2NS(=O)(=O)c2ccc(Cl)cc2)cc1 (configuration not stated)	inconclusive [inhibitor, single point]	–
CC(C)(C)C(=O)Nc1ccc(C(=O)Nc2cccc(Oc3ccc(C(=O)O)c(C(=O)O)c3)c2)cc1	active: 11.2 µM	–
CCN(CC)CCn1c(NCc2nc3ccccc3n2Cc2ccccc2)nc2ccccc21	inconclusive [inhibitor, partial curve]	–
COc1cccc(OCCOc2cccc(/C=N/n3cnnc3)c2)c1	inconclusive [inhibitor, full curve]	–
O=C(NCc1ccco1)c1ccc(Cl)cc1[N+](=O)[O-]	–	inactive: -10.8%
Nc1[nH]n(-c2ccccc2)c(=O)c1N=Nc1ccccc1	–	inactive: -7.37%
N/C(COc1ccc(F)cc1)=N\NC(=O)c1cccnc1Oc1ccccc1	active: 4.47 µM	–
COC1C(O)CC(=O)OC(C)C/C=C/C=C/[C@@H](OC2CCC(N(C)C)C(C)O2)C(C)C[C@@H](CC=O)[C@@H]1O[C@H]1OC(C)[C@H](O[C@@H]2C[C@@](C)(O)C(O)C(C)O2)C(N(C)C)C1O (some centres not stated)	–	inactive: -9.96%
O=C(N/N=C\c1cn(-c2ccccc2)nc1-c1ccccc1)c1ccc(Br)o1	active: 3.98 µM	–
Cc1cc(NC(=O)CSc2ncnc3c2cnn3-c2cccc(Cl)c2)no1	–	inactive: -11.7%
O=C1COCCN1	–	inactive: -1.69%
CCOC(=O)c1cnc(-n2nc(C)cc2C)nc1NNc1nc(-c2ccccc2)cc(-c2ccccc2)n1	active: 0.708 µM	–
Cn1nc(C(=O)NCc2ccco2)c2ccccc2c1=O	inconclusive [activator, single point]	–
CCC1Sc2ccc(S(=O)(=O)CCC(=O)Nc3ccccc3Cl)cc2NC1=O (configuration not stated)	–	inactive: -1.53%
CCc1cc(/C(Cc2csc(C)n2)=N/O)c(O)cc1O	inconclusive [inhibitor, single point]	–
COc1ccc(-c2nc3cnc(N4CCOCC4)nc3n(C[C@H]3CCCO3)c2=O)cc1	–	inactive: 4.91%
COCCNC(=S)N1CCN(c2cccc(C(F)(F)F)c2)CC1	inconclusive [inhibitor, single point]	–
O=C(Nc1nnc(C2CC2)s1)C1Cc2ccccc2CN1S(=O)(=O)c1ccccc1F (configuration not stated)	inconclusive [inhibitor, single point]	–
Cc1nc2ccccn2c1C(=O)NCc1ccc2c(c1)OCO2	inconclusive [inhibitor, single point]	–
C=CCc1cccc(/C=N/NC(=O)CCC(=O)Nc2ccc(F)cc2)c1O	active: 1 µM	–
CC1CCN(C2=C(NS(=O)(=O)c3ccc(Br)cc3)C(=O)c3ccccc3C2=O)CC1	inconclusive [inhibitor, single point]	–
CC(C)NC(=O)c1cccc2c1-c1ccccc1C2=O	–	inactive: 2.08%

Structure (SMILES)	Potency	activity, negative = inhibition
Cc1nn(C)cc1/C=N/NC(=S)Nc1ccccc1	active: 2.24 µM	–
CCOC(=O)NNc1ccc2nonc2c1[N+](=O)[O-]	inconclusive [inhibitor, single point]	–
COc1ccc(N2C(S)=C(C#N)C(=O)NC2c2ccco2)cc1 (configuration not stated)	inconclusive [inhibitor, single point]	–
N#Cc1c(-c2ccccc2)cc(C2CC2)nc1SCC(=O)c1cccs1	–	inactive: -6.47%
O=c1cc(CCl)[nH]c2nc3ccccc3n12	–	inactive: -9.85%
O=c1[nH]cnc2scc(-c3ccc(F)cc3)c12	–	inactive: 0.645%
CSc1ncccc1C(=O)Nc1ccc(F)c(F)c1F	–	inactive: 9.16%
CC(=O)c1nn(-c2cccc(Br)c2)cc1C(=O)c1ccc(C)cc1	inconclusive [inhibitor, single point]	–
CC(C)OCCCN1CN(S(=O)(=O)c2cccc(Cl)c2)c2nc3ccccc3nc21	–	inactive: 15.8%
O=C(Cc1ccc([N+](=O)[O-])cc1)N1CCN(c2ccc([N+](=O)[O-])cc2)CC1	inconclusive [inhibitor, single point]	–
COCCN=c1scc(-c2ccc3c(c2)NC(=O)CO3)n1/N=C(\C)c1ccc(O)cc1	inconclusive [inhibitor, single point]	–
Cc1cccc(C2c3[nH]c4ccccc4c3CCN2Cc2cccn2-c2ncccn2)c1 (configuration not stated)	inconclusive [inhibitor, single point]	–
COC(=O)c1ccc(CC(=O)c2nc3ccccc3s2)cc1	inconclusive [inhibitor, single point]	–
CC1CCCC(C)N1NC(=S)Nc1ccc(OC(F)F)cc1 (configuration not stated)	active: 6.31 µM	–
Cc1ccn(CC(=O)N/N=C/c2cc([N+](=O)[O-])ccc2O)n1	active: 8.91 µM	–
Nc1nc(NCCCN2CCOCC2)nc(Nc2cccc(Cl)c2)c1[N+](=O)[O-]	–	inactive: -21.3%
CC(C)CC1c2[nH]c3ccccc3c2CCN1C(=O)CCC(=O)N(C)C (configuration not stated)	inconclusive [activator, single point]	–
COc1cc2c(C(=O)NCc3ccc4c(c3)OCO4)cn(CC(C)C)c(=O)c2cc1OC	inconclusive [inhibitor, single point]	–
CC(C)OC(=O)c1ccc(N2CCN(c3ccccc3F)CC2)nc1	–	inactive: 7.47%
O=C1c2cccc(OCc3ccc(F)cc3)c2CCN1Cc1ccccc1	inconclusive [inhibitor, single point]	–
O=C(c1ccc2c(c1)OCO2)N1CCc2ccccc21	inconclusive [activator, single point]	–
NC(=S)NNC(=O)COc1ccccc1O	–	inactive: 10.3%
CCn1c2ccccc2c2cc(/C=N/n3c(-c4cc(C)[nH]n4)n[nH]c3=S)ccc21	inconclusive [inhibitor, single point]	–
O=C(NNc1nc2ccccc2s1)c1ccc(F)cc1	active: 1.26 µM	–
CN1/C(=C\C(=O)COC(=O)c2ccc(O)cc2)C(C)(C)c2ccccc21	inconclusive [inhibitor, single point]	–
CCc1cccc(NC(=O)Cn2c(=O)c3cccn3c3ccccc32)c1	–	inactive: -2.18%

Structure (SMILES)	Potency	activity, negative = inhibition
FC(F)(F)c1cc(Nc2ccccc2)nc(-c2ccccn2)n1	active: 4.47 µM	–
CCOc1ccc(NC(=O)c2ccccc2NS(=O)(=O)c2ccc(F)cc2)c([N+](=O)[O-])c1	inconclusive [inhibitor, single point]	–
O=C(Nc1ccc2c(c1)OCCO2)c1ccc(NC(=O)C2CCCO2)cc1 (configuration not stated)	inconclusive [inhibitor, full curve]	–
CCc1ccc2c(c1)C1(NN=C(c3ccc(C)cc3)S1)C(=O)N2 (configuration not stated)	active: 3.55 µM	–
COc1ccccc1CNC(=O)c1ccc(C)s1	–	inactive: 12.5%
COc1ccc(-n2c(C)cc(/C=C3/SC(=S)N(C)C3=O)c2C)cc1	inconclusive [activator, single point]	–
COc1ccc(Nc2ncnc3ccc(OC)cc23)cc1	–	inactive: -2.23%
COc1ccc(CC(=O)Nc2cccc(-c3nnc(-c4cccc(C)c4)o3)c2)cc1OC	active: 7.94 µM	–
COc1ccccc1C(=O)NNC(=O)CCCN1C(=O)/C(=C/c2cccs2)SC1=S	inconclusive [inhibitor, single point]	–
COc1cc(C(=O)Oc2ccccc2/C=N/NC(=O)c2ccc(Cl)cc2)cc(OC)c1OC	active: 11.2 µM	–
COc1ccc(-c2nn(-c3ccccc3)cc2/C=N/NC(=O)c2cccc(S(=O)(=O)Nc3ccccc3Cl)c2)cc1	active: 1.78 µM	–
CC(=O)c1c(O)c2ccccc2n(C)c1=O	–	inactive: -2.23%
Cc1ccc(-c2nnc(SCc3ccccc3F)o2)cc1	inconclusive [inhibitor, single point]	–
COc1cc(OC)cc(C(=O)N[C@H](C(=O)NCCc2c[nH]c3ccccc23)C(C)C)c1	inconclusive [activator, single point]	–
COc1ccc2c(C)cc(N3CCN(c4ccc(F)cc4)CC3)nc2c1	–	inactive: 11.1%
Cn1cnnc1SCC(=O)Nc1ccc(OCc2ccccc2)cc1	inconclusive [activator, full curve, poor fit]	–
CC(C)COc1ccc(CNC(=S)Nc2ccccc2)cc1Cl	active: 12.6 µM	–
O=C(CCCCCNC(=O)N1CCn2c1nc1ccccc12)NCc1ccccc1	–	inactive: -9.6%
Clc1ccc(OCCN2CCN(c3ncnc4sccc34)CC2)cc1	active: 0.631 µM	–
COc1ccc(CC(=O)N2N=C(C)CC2(O)C(F)(F)F)cc1OC (configuration not stated)	inconclusive [inhibitor, single point]	–
Cc1ccc(/C=N/NC(=O)Cc2cccn2C)s1	inconclusive [activator, single point]	–
CC1CCc2c(nc3ncnn3c2Nc2ccc(OC(F)(F)F)cc2)C1 (configuration not stated)	inconclusive [inhibitor, single point]	–
S=c1[nH]nc(COc2ccc(Cl)cc2Cl)n1-c1ccccc1	active: 3.55 µM	–
Cc1sc(NC(=O)Cc2ccc3c(c2)OCO3)nc1-c1ccc2c(c1)CCN2C(=O)c1ccccc1F	–	inactive: 4.14%
CC(C)(C)c1ccc(C(=O)Nc2ccc(C=C(C#N)C#N)cc2)cc1	active: 5.62 µM	–
